Test results: the RNAGym collection of RNA variant scans (doi:10.1093/nar/gkz1192)
Read counts are not given, so values of variants with three or more changes are uncertain.

B1: CPEB3 Ribozyme (parent)
chain: UAACAGGGGGCCACAGCAGAAGCGUUCACGUCGCAGCCCCUGUCAGAUUCUGGUGAAUCUGCGAAUUCUGCUGUAUAUCUC

Variants of: B1
Assay: self-cleavage, relative activity (ratio to wild type); higher = more cleavage; in vitro, sequencing
Procedure, shortened: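 Barcoded CPEB3 ribozyme mutants, produced by rounds of error-prone PCR, self-cleaved while being transcribed with T7 RNA polymerase for 5 hours at 37°C and during a subsequent 15 min DNase I step before EDTA was added. Sequencing of template-switched cDNA on Illumina gave cleaved and total reads, and DNA sequencing assigned barcodes to variants. Each variant's relative activity is its cleaved/total read fraction divided by the unmutated ribozyme's fraction, averaged across three batches. A variant needed a minimum of 5 reads.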

Row | Variant | self-cleavage
1 | C14U U26A U51A U54C G55A U74G | 0.98
2 | C14U U31C U48C U49A A64U | 0.12
3 | C14U U41G U80C | 0.23
4 | C14U U43C U74C U78C | 1.13
5 | C14U U48G U72C | 0.44
6 | C14U U49A A57C A65G | 0.13
7 | C14U U49C U54A U60C U74C | 0.2
8 | C14U U51A C59G A77U | 0.4
9 | C14U U54C A64G A77U | 1.19
10 | C14U U58A U74C | 1.04
11 | C14U U60A U69G | 0.35
12 | C14U U72C A77G | 1.31
13 | C14U U74C U78C | 1.38
14 | A15C A18G A35G U48C G63A | 0.26
15 | A15C A18G U41C | 0.67
16 | A15C A18U A20U A45U A65U U72C | 0.08
17 | A15C A20G U78C | 0.87
18 | A15C A20U A21G A28G U48A U49C U72C | 0.11
19 | A15C A20U A35G A47G C59U | 0.07
20 | A15C A20U C29U C32U U49A | 0.07
21 | A15C A21G A35G U51C U69C | 0.33
22 | A15C A21G C23G U26C | 0.11
23 | A15C A21G U31C G33A U76C | 0.03
24 | A15C A21G U60C U67A U76C | 0.18

Row | Variant | self-cleavage
25 | A15C A21G U67A U76C | 0.2
26 | A15C A28G U51C | 0.48
27 | A15C A47U U72C | 0.78
28 | A15C A56G A65G U67C U74A U78A | 0.05
29 | A15C A64C A77U | 0.15
30 | A15C A64G U66C | 0.26
31 | A15C C29A A65G | 0.13
32 | A15C C32U A45U | 0.14
33 | A15C C38U A47G A57G U58C | 0.79
34 | A15C G16A U41A C62A | 0.19
35 | A15C G33A A56G U78C | 0.06
36 | A15C U26G U41A C62A | 0.34
37 | A15C U31C A56G A64U | 0.17
38 | A15C U48C G61A | 0.14
39 | A15C U49A A65G | 0.17
40 | A15C U49A G55U G70A U76C | 0.36
41 | A15C U49C A75U | 0.13
42 | A15C U49C G73U U76C | 0.27
43 | A15C U67C U69C | 0.18
44 | A15C U69G U72C | 0.32
45 | A15G A18C G36A U60A U80C | 0.04
46 | A15G A18C U25C U72C G73C | 0.23
47 | A15G A18G A21G U31C A65G | 0.11
48 | A15G A18G A28G A57G A64G | 0.34

Row | Variant | self-cleavage
49 | A15G A18G A35G U54G U76A U78C | 0.02
50 | A15G A18G A35U U41C G55A U66C U80C | 0.05
51 | A15G A18G A57G | 0.35
52 | A15G A18G A64U U67A U78C | 0.15
53 | A15G A18G C62U A65G | 0.15
54 | A15G A18G G46C C62U U69A | 0.08
55 | A15G A18G U25A G30C C39A U72A U76A | 0.07
56 | A15G A18G U41G A57G | 0.24
57 | A15G A18G U54A | 0.42
58 | A15G A18G U60C U69A | 0.06
59 | A15G A18G U66C U78C | 0.03
60 | A15G A18U A20U | 0.17
61 | A15G A18U A21G U72G | 0.34
62 | A15G A18U A45G | 0.15
63 | A15G A18U A56U G61A C62U | 0.22
64 | A15G A18U G24A C40U G42C A56U A77G | 0.06
65 | A15G A18U U25C C68G A75U | 0.13
66 | A15G A18U U43A A56G U80C | 0.31
67 | A15G A18U U74A C81U | 0.29
68 | A15G A20C A35G U54C U69G | 0.34
69 | A15G A20G A21G A57G U60A U72C | 0.19
70 | A15G A20G A28G A75G | 0.41
71 | A15G A20G A35U U54C A57G | 0.1
72 | A15G A20G A45G A65G | 0.18

Row | Variant | self-cleavage
73 | A15G A20G C29A | 0.14
74 | A15G A20G U25A U48C U80C | 0.41
75 | A15G A20G U26A U41C U43A | 0.44
76 | A15G A20G U31C U41C | 0.13
77 | A15G A20G U49A A57G | 0.24
78 | A15G A20G U69C | 0.39
79 | A15G A20G U74C | 0.69
80 | A15G A20U A28G A56G A57G U58C U66C | 0.21
81 | A15G A20U A47U U58A | 0.06
82 | A15G A20U U25C C29U A45G | 0.11
83 | A15G A20U U31A | 0.36
84 | A15G A20U U31C A64G U72C C79A | 0.07
85 | A15G A20U U49C U51A A75G | 0.05
86 | A15G A20U U49C U67A | 0.95
87 | A15G A20U U60C G61A U67C | 0.15
88 | A15G A20U U67C | 0.1
89 | A15G A20U U72C | 0.55
90 | A15G A21C U26C U49A U69A | 0.13
91 | A15G A21G A45G U54A U72C | 0.8
92 | A15G A21G C23U U60C U78C | 0.21
93 | A15G A21G C62U | 0.17
94 | A15G A21G G53A U54A U80A | 0.75
95 | A15G A21G U25C U26C U72G | 0.06
96 | A15G A21G U26C U69C | 0.15

Row | Variant | self-cleavage
97 | A15G A21G U41A A57G A77G | 0.07
98 | A15G A21G U41A G52A | 0.07
99 | A15G A21G U43A | 0.69
100 | A15G A21G U60A | 0.22
101 | A15G A21U C29U U31C A57G | 0.05
102 | A15G A21U U43C A64G | 0.17
103 | A15G A21U U54A | 0.14
104 | A15G A28C U41A U43A U72C | 0.29
105 | A15G A28C U41A U72C C79G | 0.19
106 | A15G A28G A45G U51C | 0.35
107 | A15G A28G A45U A47G U80A | 0.41
108 | A15G A28G A65G | 0.24
109 | A15G A28G C50A U72A | 0.3
110 | A15G A28G G33A | 0.1
111 | A15G A28G U31A A45U A56U U66C U78C | 0.01
112 | A15G A28G U31A U51C U72A | 0.16
113 | A15G A28G U31C U69A U72A | 0.5
114 | A15G A28G U41C U58C A64U U67C | 0.06
115 | A15G A28G U43C A47G U60A | 0.43
116 | A15G A28G U49A U69C | 0.07
117 | A15G A28G U49C | 0.13
118 | A15G A28G U66A U69C | 0.2
119 | A15G A28U C32A A35U A65G U67C U72C | 0.06
120 | A15G A28U G55A | 0.28

Row | Variant | self-cleavage
121 | A15G A35C U43A U48C U54C | 0.22
122 | A15G A35G A56C | 0.28
123 | A15G A35G C44U U60A A65U | 0.08
124 | A15G A35G U43G A47U U49C A57G | 0
125 | A15G A35G U78C | 0.65
126 | A15G A35G U80C | 1.07
127 | A15G A35U A64C U69A | 0.11
128 | A15G A35U A64U | 0.17
129 | A15G A35U A77C | 0.44
130 | A15G A35U C62A U74C | 0.14
131 | A15G A35U C62U | 0.25
132 | A15G A35U C68A | 0.24
133 | A15G A35U G52U U67C | 0.13
134 | A15G A35U G55A A57G A64G | 0.1
135 | A15G A35U U43C | 0.32
136 | A15G A35U U43G | 0.13
137 | A15G A35U U49C A56U U69C U80C | 0.13
138 | A15G A35U U67C U74C | 0.1
139 | A15G A45G U48A U58A A64U U80A | 0.09
140 | A15G A45G U49C | 0.22
141 | A15G A45G U54A | 1.06
142 | A15G A45G U72C | 0.99
143 | A15G A45U A47G U48C U69C | 0.06
144 | A15G A45U A57G U74C | 0.29

Row | Variant | self-cleavage
145 | A15G A45U U51A C81U | 0.51
146 | A15G A45U U74A | 0.52
147 | A15G A47G U72C U74C | 0.95
148 | A15G A47U U48A A75U | 0.24
149 | A15G A47U U67C U80C | 0.15
150 | A15G A56G A64G | 0.55
151 | A15G A56G G61U U66C | 0.16
152 | A15G A56G U60A U69C G73U | 0.31
153 | A15G A56G U80C | 0.88
154 | A15G A56U U60C | 0.22
155 | A15G A57G U72A | 0.47
156 | A15G A57U G63U U69C | 0.13
157 | A15G A64C U80A | 0.15
158 | A15G A64G A77G | 0.85
159 | A15G A64G U69C | 0.24
160 | A15G A75G A77G | 0.33
161 | A15G A75G U76A | 0.36
162 | A15G C17A U51C | 0.2
163 | A15G C17G U26C C29A C32U U69A | 0.22
164 | A15G C17U A28G A65G | 0.22
165 | A15G C17U U31A A35G U74A | 0.73
166 | A15G C17U U60A U72C | 0.68
167 | A15G C23A A64G | 0.11
